# Measured values: the supplement of paper PMC8728848
# The list shows a part of the results.
# B1: Gal 1 (Canis lupus) (protein)
# chain: MACGLVASNLSLKPGQCLRVQCEVVPEAKSFVLNLGKDGDNLCLHFNPRFEAHGDVNTIVCNSKDGGAWGEELRESAFPFQPGTVTEVCISFDQADLTIKLPDGYTFKFPNRLNLEAISYLAADGDMKIKCLAFD
# How the values were obtained:
# Experiment in all cases: glycan array binding signal (z-score within array); higher = stronger binding
# Conditions in all cases: glycan notation: IUPAC condensed, linker removed
# [1] = target: Fuc(a1-2)[Gal(a1-3)]Gal
# Procedure, shortened: (§1)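 Glycan array data were curated from 3228 arrays in the Consortium for Functional Glycomics database and kept only where the protein sequence was available. Glycan names were converted to IUPAC-condensed notation, and columns mapping to the same glycan were averaged. The binding signal is a within-array Z-score, averaged across arrays of the same protein sequence at different concentrations or buffers and across linkers. Negative Z-scores can be read as non-binding.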
# [2] = target: Fuc(a1-2)[Gal(a1-3)]Gal(b1-3)GlcNAc
# Procedure, shortened: as §1
# [3] = target: Fuc(a1-2)[Gal(a1-3)]Gal(b1-3)GlcNAc(b1-2)Man(a1-3)[Fuc(a1-2)[Gal(a1-3)]Gal(b1-3)GlcNAc(b1-2)Man(a1-6)]Man(b1-4)GlcNAc(b1-4)GlcNAc
# Procedure, shortened: as §1
# [4] = target: Fuc(a1-2)[Gal(a1-3)]Gal(b1-4)Glc
# Procedure, shortened: as §1
# [5] = target: Fuc(a1-2)[Gal(a1-3)]Gal(b1-4)GlcNAc
# Procedure, shortened: as §1
# [6] = target: Fuc(a1-2)[Gal(a1-3)]Gal(b1-4)GlcNAc(b1-2)Man(a1-3)[Fuc(a1-2)[Gal(a1-3)]Gal(b1-4)GlcNAc(b1-2)Man(a1-6)]Man(b1-4)GlcNAc(b1-4)GlcNAc
# Procedure, shortened: as §1
# [7] = target: Fuc(a1-2)[Gal(a1-3)]Gal(b1-4)[Fuc(a1-3)]GlcNAc
# Procedure, shortened: as §1
# [8] = target: Fuc(a1-2)[Gal(a1-4)]Gal(b1-4)GlcNAc
# Procedure, shortened: as §1
# [9] = target: Fuc(a1-2)[GalNAc(a1-3)]Gal
# Procedure, shortened: as §1
# [10] = target: Fuc(a1-2)[GalNAc(a1-3)]Gal(b1-3)GalNAc(a1-3)[Fuc(a1-2)]Gal(b1-4)GlcNAc
# Procedure, shortened: as §1
# [11] = target: Fuc(a1-2)[GalNAc(a1-3)]Gal(b1-3)GlcNAc
# Procedure, shortened: as §1
# [12] = target: Fuc(a1-2)[GalNAc(a1-3)]Gal(b1-3)GlcNAc(b1-2)Man(a1-3)[Fuc(a1-2)[GalNAc(a1-3)]Gal(b1-3)GlcNAc(b1-2)Man(a1-6)]Man(b1-4)GlcNAc(b1-4)GlcNAc
# Procedure, shortened: as §1
# [13] = target: Fuc(a1-2)[GalNAc(a1-3)]Gal(b1-4)Glc
# Procedure, shortened: as §1
# [14] = target: Fuc(a1-2)[GalNAc(a1-3)]Gal(b1-4)GlcNAc
# Procedure, shortened: as §1
# [15] = target: Fuc(a1-2)[GalNAc(a1-3)]Gal(b1-4)GlcNAc(b1-2)Man(a1-3)[Fuc(a1-2)[GalNAc(a1-3)]Gal(b1-4)GlcNAc(b1-2)Man(a1-6)]Man(b1-4)GlcNAc(b1-4)GlcNAc
# Procedure, shortened: as §1
# [16] = target: Fuc(a1-2)[GalNAc(a1-3)]Gal(b1-4)GlcNAc(b1-3)Gal(b1-4)GlcNAc
# Procedure, shortened: as §1
# [17] = target: Fuc(a1-2)[GalNAc(a1-3)]Gal(b1-4)GlcNAc(b1-3)Gal(b1-4)GlcNAc(b1-3)Gal(b1-4)GlcNAc
# Procedure, shortened: as §1
# [18] = target: Fuc(a1-2)[GalNAc(a1-3)]Gal(b1-4)[Fuc(a1-3)]GlcNAc
# Procedure, shortened: as §1
# [19] = target: Fuc(a1-2)[GalNAc(a1-4)]Gal(b1-4)GlcNAc
# Procedure, shortened: as §1
# [20] = target: Fuc(a1-2)[GalNAc(b1-3)]Gal
# Procedure, shortened: as §1
# [21] = target: Fuc(a1-3)GlcNAc
# Procedure, shortened: as §1
# [22] = target: Fuc(a1-3)[Gal(b1-4)]Glc6S
# Procedure, shortened: as §1
# [23] = target: Fuc(a1-3)[Gal(b1-4)]GlcNAc
# Procedure, shortened: as §1
# [24] = target: Fuc(a1-3)[Gal(b1-4)]GlcNAc(b1-2)Man(a1-3)[Fuc(a1-3)[Gal(b1-4)]GlcNAc(b1-2)Man(a1-6)]Man(b1-4)GlcNAc(b1-4)GlcNAc
# Procedure, shortened: as §1
# [25] = target: Fuc(a1-3)[Gal(b1-4)]GlcNAc(b1-3)Gal(b1-3)[Fuc(a1-4)]GlcNAc
# Procedure, shortened: as §1
# [26] = target: Fuc(a1-3)[Gal(b1-4)]GlcNAc(b1-3)GalNAc
# Procedure, shortened: as §1
# [27] = target: Fuc(a1-3)[Gal(b1-4)]GlcNAc(b1-4)Gal(b1-4)[Fuc(a1-3)]GlcNAc
# Procedure, shortened: as §1
# [28] = target: Fuc(a1-3)[Gal(b1-4)]GlcNAc(b1-4)Gal(b1-4)[Fuc(a1-3)]GlcNAc(b1-4)Gal(b1-4)[Fuc(a1-3)]GlcNAc
# Procedure, shortened: as §1
# [29] = target: Fuc(a1-3)[Gal(b1-4)]GlcNAc(b1-6)[Gal(b1-3)GlcNAc(b1-3)]Gal(b1-4)Glc
# Procedure, shortened: as §1
# [30] = target: Fuc(a1-3)[Gal(b1-4)]GlcNAc6S
# Procedure, shortened: as §1
binder,measurement,setting,value
B1,glycan array binding signal (z-score),[1],-0.319
same,glycan array binding signal (z-score),[2],-0.288
same,glycan array binding signal (z-score),[3],-0.316
same,glycan array binding signal (z-score),[4],-0.34
same,glycan array binding signal (z-score),[5],-0.318
same,glycan array binding signal (z-score),[6],-0.07
same,glycan array binding signal (z-score),[7],-0.293
same,glycan array binding signal (z-score),[8],-0.314
same,glycan array binding signal (z-score),[9],-0.288
same,glycan array binding signal (z-score),[10],-0.317
same,glycan array binding signal (z-score),[11],-0.322
same,glycan array binding signal (z-score),[12],-0.326
same,glycan array binding signal (z-score),[13],-0.312
same,glycan array binding signal (z-score),[14],-0.321
same,glycan array binding signal (z-score),[15],-0.132
same,glycan array binding signal (z-score),[16],-0.197
same,glycan array binding signal (z-score),[17],-0.094
same,glycan array binding signal (z-score),[18],-0.324
same,glycan array binding signal (z-score),[19],-0.331
same,glycan array binding signal (z-score),[20],-0.339
same,glycan array binding signal (z-score),[21],-0.341
same,glycan array binding signal (z-score),[22],-0.326
same,glycan array binding signal (z-score),[23],-0.327
same,glycan array binding signal (z-score),[24],-0.335
same,glycan array binding signal (z-score),[25],-0.342
same,glycan array binding signal (z-score),[26],-0.326
same,glycan array binding signal (z-score),[27],-0.323
same,glycan array binding signal (z-score),[28],-0.308
same,glycan array binding signal (z-score),[29],0.136
same,glycan array binding signal (z-score),[30],-0.283
